Whole data set: some 33,000 sequences, median “E-score (-0.5 to 0.5)” near -0.012, cut for the highest 2% near 0.29. This is one part of the list.
Biological target: T1, Ybr033w (UniProt P38073)
T1 sequence: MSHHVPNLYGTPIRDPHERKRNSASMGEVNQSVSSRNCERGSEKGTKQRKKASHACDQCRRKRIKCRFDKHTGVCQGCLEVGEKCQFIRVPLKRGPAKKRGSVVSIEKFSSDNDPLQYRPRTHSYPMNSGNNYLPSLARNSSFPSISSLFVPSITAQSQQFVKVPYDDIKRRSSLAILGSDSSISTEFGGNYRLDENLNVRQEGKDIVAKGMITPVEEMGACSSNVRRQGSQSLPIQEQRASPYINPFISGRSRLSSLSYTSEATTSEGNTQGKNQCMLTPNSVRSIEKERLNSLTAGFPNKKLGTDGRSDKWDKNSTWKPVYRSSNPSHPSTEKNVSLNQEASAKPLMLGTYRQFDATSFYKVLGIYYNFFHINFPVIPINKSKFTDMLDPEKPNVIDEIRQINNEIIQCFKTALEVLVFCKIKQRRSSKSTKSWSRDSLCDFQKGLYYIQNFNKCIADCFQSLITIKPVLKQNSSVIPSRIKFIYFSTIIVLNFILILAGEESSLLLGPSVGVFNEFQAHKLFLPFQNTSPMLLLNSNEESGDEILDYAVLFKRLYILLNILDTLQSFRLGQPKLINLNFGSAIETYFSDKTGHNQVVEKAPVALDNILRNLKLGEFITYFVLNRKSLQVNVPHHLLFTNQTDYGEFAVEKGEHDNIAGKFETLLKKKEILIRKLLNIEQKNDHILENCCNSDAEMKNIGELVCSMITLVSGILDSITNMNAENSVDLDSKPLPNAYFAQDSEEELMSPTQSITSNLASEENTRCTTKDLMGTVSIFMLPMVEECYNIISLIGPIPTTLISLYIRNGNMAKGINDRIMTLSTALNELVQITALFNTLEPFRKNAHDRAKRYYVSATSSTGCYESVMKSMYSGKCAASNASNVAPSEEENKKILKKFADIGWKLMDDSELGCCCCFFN
Assay: PBM E-score (8-mer binding enrichment) (E-score (-0.5 to 0.5)); higher = stronger / more preferred TF binding; most listed sequences are background and not binding sites
Conditions: protein concentration: 200 nM; construct: GST-full length
Outline: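 Universal all-10-mer Agilent arrays, double-stranded by primer extension on fresh or once-stripped slides, were probed with about 100-200 nM GST-tagged yeast transcription factors made by PURExpress. Fluorescent anti-GST detected bound protein, and masliner normalised the scans. E-scores from the Universal PBM Analysis Suite were given to each ungapped eight-base word pooled with its reverse complement.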

Sequence | PBM E-score
CCCAACGC | -0.15
CTTAAGCC | -0.0683
CAGAGCAG | -0.0586
ACAAGAAT | 0.266
AATTGTAC | 0.337
ACGGCCCG | -0.218
ATTACGAC | 0.252
GAGTCCCA | -0.138
AGTTAGGG | -0.137
AAACTTAA | 0.259
CCCGTTCC | -0.0733
AATCTTCC | 0.411
GAGATTCC | -0.0679
AGAAGTCT | -0.0489
ATGTTAGG | -0.00048
ATCTAATG | 0.105
CCATTAGA | -0.14
AGAACACC | 0.0509
CACAAACA | 0.0559
CTACATTA | 0.0958
ACACAAGA | 0.135
CTCGAATC | -0.0751
CCCGGGCA | -0.0968
AGACCGGG | -0.086

Sequence | PBM E-score
ACGCAAGG | -0.0439
CATGTCCG | -0.287
AGCGCTAG | -0.101
CTACCTCA | -0.232
CCTTCAGA | -0.0455
CCGGACGA | -0.105
CACACGCG | -0.0675
AACAAAAC | 0.171
ACCGACTG | -0.141
ATAACAGA | 0.113
CAGTAGGA | -0.0741
CACCGGTC | -0.393
AGGGTTGA | -0.0655
AAATCCTT | 0.0822
TACCGGCA | -0.203
AGAACAAC | 0.0473
CGACACTA | -0.0325
CATTTATA | 0.19
GCCGTGGA | -0.133
AAGCCCTT | -0.252
AGGGGACG | -0.301
CATACCCA | 0.0973
CTGGTTCA | -0.0931
AAAAAGTG | 0.145

Sequence | PBM E-score
GTGTACGA | 0.108
ACAAGCAC | -0.0334
ATAGTGAT | 0.153
CCTGAAAA | -0.035
GCCCAGAC | -0.403
CCGGTCGC | -0.176
AATAAGTA | 0.268
AGTCCAAC | -0.12
GGGGTTCA | -0.111
ATCTTTCA | 0.0283
AGTCTTGC | -0.106
AGATTTGA | 0.141
GCGCCCTA | -0.269
AATAGGAG | -0.253
GACGCAGC | -0.18
TAGAAAGA | -0.0722
ACTAGGAG | -0.098
AGAAGCGC | 0.0785
AATTGAAG | 0.0866
ACTCTTAC | 0.192
CGGTCCGA | -0.179
AAGTGTAG | 0.173
ATTTCAAA | 0.261
CCTCCGCC | -0.17

Sequence | PBM E-score
GGTGGGAA | 0.0106
AATAGCTG | 0.143
CACGCGCA | -0.155
CGAGATGC | -0.0539
ATCCTTGA | -0.0476
ATATCAGG | 0.134
AATTTCCG | 0.325
GGGACCCA | -0.31
ACCCTCAA | -0.0511
ATTGTCTC | 0.0961
TACTGTAA | 0.184
CGCCATGA | -0.0897
TGAAACCA | 0.174
CAACTCGA | -0.0402
CTATAGTA | 0.225
AGTAGGCG | -0.0436
ACGACTGA | 0.0854
CTCAAGCC | -0.281
CGGTGGAG | -0.182
CGGCCGAA | -0.148
GAGAGAGC | -0.202
AGCCTTAT | -0.0243
